Paper PMC12742838 (2025)

Biological target: T1, Varicella-zoster virus glycoprotein E (gE), recombinant protein, tag not told for these experiments (Varicella-zoster virus, UniProt P09259 31-537)
T1 chain: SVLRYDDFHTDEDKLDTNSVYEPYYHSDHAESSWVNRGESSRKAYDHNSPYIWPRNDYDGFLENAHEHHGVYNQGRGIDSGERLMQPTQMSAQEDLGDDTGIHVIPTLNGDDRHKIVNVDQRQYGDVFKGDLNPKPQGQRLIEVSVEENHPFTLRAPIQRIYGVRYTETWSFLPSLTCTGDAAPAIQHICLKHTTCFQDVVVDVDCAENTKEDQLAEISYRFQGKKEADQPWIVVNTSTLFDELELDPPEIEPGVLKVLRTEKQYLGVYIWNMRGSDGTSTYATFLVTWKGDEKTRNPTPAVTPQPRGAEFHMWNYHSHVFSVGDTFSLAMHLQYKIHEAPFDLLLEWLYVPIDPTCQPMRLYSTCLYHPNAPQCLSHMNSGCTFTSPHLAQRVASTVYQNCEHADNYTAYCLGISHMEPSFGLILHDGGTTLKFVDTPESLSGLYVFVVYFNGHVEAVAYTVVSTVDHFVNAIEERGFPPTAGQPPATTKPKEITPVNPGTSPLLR
Test: SPR

B1: recombinant soluble insulin-degrading enzyme (rIDE, residues 42-1,019) (enzyme)
chain: not shown
Work on B1 yielded a Kd of 50.9 nM.
